The results in this text go back to the supplement of paper PMC3724861.

This is one part of the list. Some results are limits rather than exact numbers.

The test system of this experiment is T1, Caupolican (Caup) homeodomain DNA-binding domain.
T1 sequence: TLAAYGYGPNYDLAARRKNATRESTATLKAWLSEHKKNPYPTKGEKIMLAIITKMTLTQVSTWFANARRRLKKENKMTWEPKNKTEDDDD
Put plainly: PBM E-score (8-mer, recovered from the published 9-mer minima) (E-score (dimensionless, -0.5 to 0.5)); Drosophila protein; higher = stronger relative binding preference, active = 0.31 or more. A digest of the protocol:
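An enrichment score, with higher meaning stronger, expresses relative binding preference for each short DNA word. The protein used was Caup's homeodomain DNA-binding domain (residues 214-303), produced by in vitro transcription and translation and tested at 100 nM on custom-designed protein binding microarrays. The 8-mer values were recovered from published 9-mer scores, each equal to the lower of its two constituent 8-mer scores.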
Turning to TAGTACGA, the “PBM E-score” value is inactive: 0.0955. The result for CCCCCCTC reads inactive: -0.37; that for TATAGTAA, inactive: 0.217; that for CCCGTGCC, inactive: -0.28.

On to GATGCTAC, for which the “PBM E-score” value was inactive: 0.0965.

On to ATTCAGTC, for which the “PBM E-score” value was inactive: 0.00318.

Consider AAAATAGA, for which the “PBM E-score” value was inactive: 0.105. The result for AAATCACA reads inactive: 0.108; that for AGCGGCCA, inactive: -0.198; that for CGATCCCC, inactive: -0.0622.

Regarding ATGATGGC, the “PBM E-score” value was inactive: -0.037. With AGCTACAA the figure was inactive: 0.193; with ACGAGAGA, inactive: 0.0344; with CAGGTTAA, inactive: 0.126. The result for AAACTCTA reads inactive: 0.0323; that for CTATGAGA, inactive: -0.107.

In the case of AAAATCTA, the “PBM E-score” value is inactive: 0.0466.

Turning to AGTGCTGC, the “PBM E-score” value was inactive: -0.139. The result for CAGTTATC reads inactive: -0.0794; that for ACCGTCGG, inactive: -0.206.

Turning to ATCGCCGG, the “PBM E-score” value was inactive: -0.179.

Consider ACCCCTCG, for which the “PBM E-score” value was inactive: -0.218. The result for GCTCCACC reads inactive: -0.174; that for AGTGACTG, inactive: -0.0421; that for AGCTCAAC, inactive: -0.0254.

Turning to AACCCATA, the “PBM E-score” value was at least 0.135. For GTTTTTAA, the “PBM E-score” value is inactive: 0.0416.

In the case of ATAGAATC, the “PBM E-score” value is inactive: 0.0121. The result for AATTACGG reads inactive: -0.0308; that for ACATGATG, active: 0.351. With AAAAAGAA the figure was inactive: 0.0308; with GCTCTACC, inactive: -0.0838; with AACATTGT, active: ≥ 0.347.

With AGTATCCC, the “PBM E-score” value was inactive: -0.0274. With TCTCTGAA the figure was inactive: -0.00572; with AACTCGGT, at least 0.0208. With AATGAAAT the figure was inactive: 0.139; with CCCACAGC, inactive: -0.0615; with AAAGTACT, inactive: 0.0747.

Turning to AGCCCGGC, the “PBM E-score” value is inactive: -0.274. With AACGAGTC the figure was inactive: 0.0439; with AGCCTCGC, inactive: -0.13.

AGCATTGG: the “PBM E-score” value is inactive: -0.0485.

On to CATAACCA, for which the “PBM E-score” value is inactive: 0.168. In the case of GTGAGTCA, the “PBM E-score” value is inactive: 0.0761.

In the case of ATTAGTGA, the “PBM E-score” value is inactive: 0.107.

CCAGACCG: the “PBM E-score” value was inactive: -0.146. Consider GTAAGAAA, for which the “PBM E-score” value was inactive: 0.0907.

For the sequence CATCCACC, the “PBM E-score” value was inactive: -0.054. The result for TATGGTAA reads inactive: 0.118; that for GGCATGTA, active: 0.378.

Take GCGTGGAA: the “PBM E-score” value was inactive: -0.169. The result for GTACAAAC reads inactive: 0.265. With ACCATGTG the figure was inactive: 0.145; with AAAGCGTC, inactive: -0.114.

On to TCCCATCA, for which the “PBM E-score” value was inactive: -0.0689. In the case of ATAATTAG, the “PBM E-score” value was inactive: 0.103. With GGTGGTAA the figure was inactive: 0.0159. On to ACTCTACC, for which the “PBM E-score” value is inactive: 0.00157.

As for TGGAAGAA, the “PBM E-score” value was at least -0.0169. With ATCATGCC the figure was inactive: 0.0227; with ATTGCGAA, inactive: 0.0868.
